# Source: publication PMC4336329 (PLoS ONE, 2015)
# Among all 310,000 compounds or so, about 14,000 (4.5%) showed an effect of 50% or more. Effects have a minus sign here. Some of the results follow.
# Molecular target: human ether-à-go-go-related gene (hERG) potassium channel (human, UniProt Q12809)
# Experiment: primary screen, population patch clamp on CHO cells stably expressing hERG
# 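Also: peak tail current of the secondary pulse compared with the same well before compound.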
# Sequence of human ether-à-go-go-related gene (hERG) potassium channel (Q12809 whole entry, looked up): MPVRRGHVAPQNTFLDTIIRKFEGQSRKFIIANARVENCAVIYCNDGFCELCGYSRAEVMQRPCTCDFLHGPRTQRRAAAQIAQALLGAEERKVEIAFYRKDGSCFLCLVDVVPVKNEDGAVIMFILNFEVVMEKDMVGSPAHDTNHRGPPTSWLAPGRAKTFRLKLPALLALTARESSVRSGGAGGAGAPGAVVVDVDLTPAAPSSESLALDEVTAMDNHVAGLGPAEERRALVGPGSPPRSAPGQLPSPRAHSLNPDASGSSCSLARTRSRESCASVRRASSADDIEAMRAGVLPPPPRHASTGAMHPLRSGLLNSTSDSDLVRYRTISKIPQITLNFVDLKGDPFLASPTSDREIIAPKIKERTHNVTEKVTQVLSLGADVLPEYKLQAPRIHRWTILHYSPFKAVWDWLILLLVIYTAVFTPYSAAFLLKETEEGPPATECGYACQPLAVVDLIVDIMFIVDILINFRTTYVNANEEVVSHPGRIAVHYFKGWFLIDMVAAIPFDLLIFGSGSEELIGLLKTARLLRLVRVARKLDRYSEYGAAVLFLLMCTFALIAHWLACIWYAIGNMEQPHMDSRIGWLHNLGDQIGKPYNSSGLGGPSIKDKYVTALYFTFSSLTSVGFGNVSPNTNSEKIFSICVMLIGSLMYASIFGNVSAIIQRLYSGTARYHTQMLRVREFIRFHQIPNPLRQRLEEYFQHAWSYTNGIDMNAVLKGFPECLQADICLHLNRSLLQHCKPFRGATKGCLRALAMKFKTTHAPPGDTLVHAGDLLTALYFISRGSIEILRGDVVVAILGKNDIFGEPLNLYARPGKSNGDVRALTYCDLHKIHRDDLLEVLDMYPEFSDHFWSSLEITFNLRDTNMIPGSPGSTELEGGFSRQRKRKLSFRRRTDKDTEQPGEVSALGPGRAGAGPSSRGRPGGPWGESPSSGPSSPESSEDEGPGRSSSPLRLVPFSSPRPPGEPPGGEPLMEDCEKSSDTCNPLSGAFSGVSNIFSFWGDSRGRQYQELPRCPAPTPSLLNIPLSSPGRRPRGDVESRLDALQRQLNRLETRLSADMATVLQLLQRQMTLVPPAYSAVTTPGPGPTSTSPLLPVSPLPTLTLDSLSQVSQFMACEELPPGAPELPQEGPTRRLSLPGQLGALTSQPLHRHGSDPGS
row,Compound,"hERG current change (%, negative = inhibition) at 10uM"
1,CC1CCC(NC(=O)CN(C)CC(=O)Nc2ccc(F)cc2)CC1 (stereo not shown),-13.3%
2,CCN(CC)C(=O)CS(=O)CC(=O)Nc1cc(OCCOC)c(Cl)cc1Cl (stereo not shown),8.46%
3,O=c1[nH]c(Cc2cccc(C(F)(F)F)c2)nc2ccccc12,19.1%
4,C=CCn1c(-c2cccc(OC)c2)n[nH]c1=S,14.5%
5,Cc1ccc(C(=O)OCC(=O)Nc2cc(F)ccc2F)cc1NC(=O)c1ccco1,7.99%
6,CCNC(=O)CCCOc1ccc(Cl)cc1Cl,-5.18%
7,CC(C)=CC(=O)Nc1nnc(C)s1,-7.45%
8,CO/N=C/C(=N\Nc1ccc(OC)cc1)C(=O)c1ccc(OC)cc1,32.6%
9,Cc1cc(C)n(C(C)CC(=O)Nc2ccc3c(c2)OCO3)n1 (stereo not shown),10.2%
10,CC(C)C(NC(=O)c1ccc(Cl)cc1)C(=O)NCC1CCCO1 (stereo not shown),21%
11,O=S(=O)(Nc1ncccn1)c1ccc(F)cc1,6.68%
12,Cc1ccc(NC(=O)CSCC(=O)Nc2ncc3c(n2)CC(c2ccco2)CC3=O)cc1 (stereo not shown),-30.4%
13,Cc1ccccc1CN1CCN(CC(=O)NCc2ccccn2)C1=O,10.3%
14,C=CCNC(=O)CN(c1ccc(F)cc1)S(=O)(=O)c1ccc(OC)cc1,-17.8%
15,Cc1ccc(CNC(=O)c2ccc(N3CCCC3=O)cc2)cc1,-3.75%
16,CC(C)CCOP(=O)(c1ccc(N(C)C)cc1)C(O)c1ccc(C(C)C)cc1 (stereo not shown),11.7%
17,O=C(Nc1cccnc1)c1cc(S(=O)(=O)N2CCOCC2)ccc1Br,-35.8%
18,O=C(N/N=C/c1cc(Cl)cc([N+](=O)[O-])c1O)c1ccc2c(c1)OCO2,17.5%
19,CC(=O)C1C(=O)C=C(c2ccco2)CC1c1ccccc1 (stereo not shown),-3.77%
20,O=C1C=C(c2ccc3c(c2)oc2ccccc23)C[C@@H](c2ccc3c(c2)OCO3)C1,20.2%
21,COc1ccc(CNc2nc(C)c([N+](=O)[O-])c(C)c2C#N)cc1,12.9%
22,CC(C(=O)Nc1ccccc1Br)c1ccc([N+](=O)[O-])cc1 (stereo not shown),-35.5%

row,Compound,"hERG current change (%, negative = inhibition) at 10uM"
1,Cc1cc(-c2nn(-c3ccccc3)cc2/C=C2\SC(N)=NC2=O)ccc1OC(C)C,-0.837%
2,O=C(NCCN1C(=O)S/C(=C/c2ccccc2)C1=O)C1CCCN1C(=O)c1cccs1 (stereo not shown),-26.9%
3,CCOC(=O)c1cc(NC(=O)Nc2ccccn2)c(C)nc1C,0.079%
4,O=C(NCCCC(NC(=O)OCc1ccccc1)C(=O)O)OCc1ccccc1 (stereo not shown),12.3%
5,COc1ccc(N(C(=O)CS(=O)CC(=O)Nc2ccc(F)cc2)C(C(=O)NC2CCCCC2)c2cccs2)cc1 (stereo not shown),0.92%
6,O=C(N/N=C/c1ccc(F)cc1)c1cc(-c2ccc3c(c2)OCO3)n[nH]1,4.07%
7,CC(C)CCNC(=O)c1cc(S(=O)(=O)N2CCCCC2)ccc1N1CCOCC1,-9.66%
8,Cc1ccc(-c2nc(C(F)(F)F)cc(=O)[nH]2)cc1,12.7%
9,Cc1ccc(C(=O)Nc2nnc(SCC(=O)N3CCCc4ccccc43)s2)cc1,7.27%
10,O=C(C[n+]1ccc(-c2nnc3n2CCCCC3)cc1)c1ccc(Cl)cc1.[Br-],7.92%
11,CCN(CC)N=O,9.38%
12,O=C(O)C(=O)O.O=[N+]([O-])c1ccc(N2CCN(Cc3ccc([N+](=O)[O-])o3)CC2)cc1,-71.1%
13,CCOC(=O)c1c(C(F)(F)F)cc(-c2ccc(F)cc2)nc1C,4.95%
14,Cc1ccc(S(=O)(=O)N2CCN(C3CC(=O)N(CCc4ccccc4)C3=O)CC2)cc1C (stereo not shown),-27.7%
15,Cc1cc(C)c2cc(C(=O)Nc3ccccc3)[nH]c2c1,5.27%
16,COC(=O)NCc1ccc2c(c1)OCO2,10.2%
17,O=C(NCc1ccccc1)[C@]1(C(F)(F)F)C[C@H](CCc2ccccc2)CCCO1,3.84%
18,CCOC(=O)c1ccc(N2CCN(C(=O)c3ccccc3)CC2)c(NC(=O)c2ccco2)c1,-71.5%
19,O=S1(=O)c2ccccc2N=NN1Cc1ccc(Cl)cc1,16.1%
20,Cc1ccc2nc(N3CCOCC3)c3nncn3c2c1,-9.49%
21,Cc1cc(C)c2c(c1)cc(C)c1nnc(SCC(=O)Nc3ccc(S(=O)(=O)N4CCCCC4)cc3)n12,12.6%
